PubChem BioAssay AID1645882 (National Center for Advancing Translational Sciences (NCATS), 2021)
“And” between values parts separate entries of the source, which are not always exact repeats. Equal entries are not always repeated. The whole screen tested about 16,000 compounds, of which about 120 (0.75%) were called active. Inconclusive results, whose numbers are uncertain, are shown with a selection of clear calls. Calls come from the whole dose curve; as a rule, active = well fitted inhibition curve with a large enough effect; inconclusive = small, poorly fitted or top-dose-only effect; inactive = no such curve, though single readings can be large or run the other way. Potencies beside an inconclusive call are fits to weak or partial responses and may not hold up. A structure can be active in one record and inactive in another.

Molecular target: Rap guanine nucleotide exchange factor 3 (Homo sapiens) (UniProt O95398)
Chain of UniProt O95398 (O95398 whole entry, looked up): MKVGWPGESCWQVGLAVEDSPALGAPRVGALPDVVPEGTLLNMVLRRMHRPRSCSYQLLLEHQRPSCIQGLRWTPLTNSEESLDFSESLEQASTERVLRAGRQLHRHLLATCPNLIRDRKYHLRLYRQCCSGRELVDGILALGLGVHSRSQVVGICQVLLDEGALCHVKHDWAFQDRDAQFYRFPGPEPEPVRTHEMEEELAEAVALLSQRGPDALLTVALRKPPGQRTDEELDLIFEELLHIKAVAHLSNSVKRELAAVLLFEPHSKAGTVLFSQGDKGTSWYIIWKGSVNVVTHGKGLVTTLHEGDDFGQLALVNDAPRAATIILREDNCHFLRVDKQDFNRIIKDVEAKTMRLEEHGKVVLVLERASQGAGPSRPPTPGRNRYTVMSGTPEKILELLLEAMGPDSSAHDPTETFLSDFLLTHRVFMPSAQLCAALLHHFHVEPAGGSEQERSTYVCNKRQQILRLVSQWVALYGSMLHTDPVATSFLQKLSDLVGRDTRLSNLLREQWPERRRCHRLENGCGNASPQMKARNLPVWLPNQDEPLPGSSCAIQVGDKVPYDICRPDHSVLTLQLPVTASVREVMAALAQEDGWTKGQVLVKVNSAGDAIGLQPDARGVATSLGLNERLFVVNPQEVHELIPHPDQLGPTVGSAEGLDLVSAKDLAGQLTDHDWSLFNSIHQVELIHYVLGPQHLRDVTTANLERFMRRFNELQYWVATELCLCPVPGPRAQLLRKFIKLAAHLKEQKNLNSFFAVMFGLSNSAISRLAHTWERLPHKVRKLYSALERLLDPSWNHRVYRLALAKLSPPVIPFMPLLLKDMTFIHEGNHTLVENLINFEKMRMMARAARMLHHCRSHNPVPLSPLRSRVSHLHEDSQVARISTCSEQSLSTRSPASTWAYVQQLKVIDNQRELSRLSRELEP
Assay: Validation qHTS for antagonist of cAMP-regulated guanine nucleotide exchange factor 3 (EPAC1); note: nearly all actives have a fitted effect of over 75% in size
Conditions: EPAC1 Rap1B-BODIPY-GDP exchange, fluorescence; series mostly up to 150 µM
In short: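 EPAC1 (100 nM) mixed with 250 nM RAP1B-BODIPY-GDP and 50 uM GDP; compounds in concentration series, 5 min at room temperature. Fluorescence (ex 480/em 540 nm) read every 5 min for 30 min; normalized to ATA control and DMSO.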
Potency is the fitted concentration of half-maximal effect; tags give direction and shape of the fitted curve.

SMILES	Potency
O[C@@H]1CCCC[C@@H]1N1CCC(c2ccccc2)CC1	inactive
CC[C@H](C)[C@H]1O[C@]2(C=C[C@@H]1C)C[C@@H]1C[C@@H](C/C=C(\C)[C@@H](O[C@H]3C[C@H](OC)[C@@H](O[C@H]4C[C@H](OC)[C@@H](O)[C@H](C)O4)[C@H](C)O3)[C@@H](C)/C=C/C=C3\CO[C@@H]4[C@H](O)C(C)=C[C@@H](C(=O)O1)[C@]34O)O2	inconclusive: 100 µM [inhibitor, partial curve]
CC1=C(O)C(=O)C=C2C1=CC=C1[C@]2(C)CC[C@@]2(C)C3C[C@](C)(C(=O)O)CC[C@@]3(C)CC[C@@]12C (stereo partly specified)	inconclusive: 112 µM [inhibitor, single point]
NC(Cc1cc(O)c(O)cc1O)C(=O)O (stereo unspecified)	inconclusive: 12.6 µM [inhibitor, single point]
CCC(=O)O[C@H]1[C@@H](N2CCCCC2)C[C@H]2[C@@H]3CC[C@H]4C[C@H](OC(C)=O)[C@@H](N5CCCCC5)C[C@]4(C)[C@H]3CC[C@@]21C	inactive
Oc1cc(Cl)ccc1Oc1ccc(Cl)cc1Cl	inconclusive: 44.7 µM [inhibitor, full curve]
CC1=C2CCC3C4CCC(=O)[C@@]4(C)CCC3[C@]2(C)CCC1=O (stereo partly specified)	inconclusive: 100 µM [inhibitor, single point]
CCCCCCCCCc1ccc(O)cc1	inconclusive: 79.4 µM [inhibitor, partial curve]
Clc1ccc(CSC(Cn2ccnc2)c2ccc(Cl)cc2Cl)cc1 (stereo unspecified)	inconclusive: 70.8 µM [inhibitor, partial curve, poor fit]
N#C/C(=C/c1ccc(O)c(O)c1)C(N)=S	inactive
C[C@]12CC[C@H](OS(=O)(=O)O)CC1=CC[C@@H]1[C@@H]2CC[C@]2(C)C(=O)CC[C@@H]12	inconclusive: 100 µM [inhibitor, partial curve, poor fit]
O=c1[nH]cc(N(CCCl)CCCl)c(=O)[nH]1	inconclusive: 126 µM [inhibitor, single point]
Clc1ccc(CO/N=C(\Cn2ccnc2)c2ccc(Cl)cc2Cl)c(Cl)c1	inconclusive: 50.1 µM [inhibitor, partial curve]
CN(CCC(N)CC(=O)NC1C=CC(n2ccc(N)nc2=O)OC1C(=O)O)C(=N)N (stereo unspecified)	inactive
Cc1nnc2n1-c1sc(CCc3ccc(CC(C)C)cc3)cc1C(c1ccccc1Cl)=NC2C (stereo unspecified)	inconclusive: 22.4 µM [inhibitor, full curve]
O=C1c2ccccc2C(=O)C1C(=O)C(c1ccccc1)c1ccccc1	inconclusive: 112 µM [inhibitor, single point]

SMILES	Potency
O=c1[nH]c2ccccc2n1CCCN1CCC(n2c(=O)[nH]c3cc(Cl)ccc32)CC1	inconclusive: 112 µM [inhibitor, single point]
CC(Cc1ccc2c(c1)OCO2)NO (stereo unspecified)	inactive
O=C1C(I)=CC(=C(c2cc(I)c(O)c(I)c2)c2ccccc2C(=O)O)C=C1I	inconclusive: 44.7 µM [inhibitor, full curve, poor fit] and active: 39.8 µM
CCC(C)C(=O)c1c(O)c(C)c2oc3c(C)c(O)c(C(=O)C(C)CC)c(O)c3c2c1O (stereo unspecified)	inactive
O=C1C=CC(=O)c2c(O)cccc21	inconclusive: 100 µM [inhibitor, partial curve]
CC1OC(=O)C(C(C)C)NC(=O)C(C(C)C)OC(=O)C(C(C)C)NC(=O)C(C)OC(=O)C(C(C)C)NC(=O)C(C(C)C)OC(=O)C(C(C)C)NC(=O)C(C)OC(=O)C(C(C)C)NC(=O)C(C(C)C)OC(=O)C(C(C)C)NC1=O (stereo unspecified)	inconclusive: 44.7 µM [inhibitor, partial curve]
CCCCCC1C(=O)O[C@H](C)[C@@H](NC(=O)c2cccc(NC=O)c2O)C(=O)OC(C)C1OC(=O)CC(C)C (stereo partly specified)	inconclusive: 89.1 µM [inhibitor, partial curve]
O=C1OC2(c3cc(Br)c(O)cc3Oc3c2cc(Br)c(O)[c]3[Hg])c2ccccc21 (stereo unspecified)	inconclusive: 1.58 µM [inhibitor, partial curve, poor fit]
CCOP(=S)(OCC)SCSc1ccc(Cl)cc1	inconclusive: 126 µM [inhibitor, single point]
CC1=CC(=O)c2c(O)cccc2C1=O	inconclusive: 112 µM [inhibitor, single point]
C[C@H](N)[C@H](O)c1ccc(O)c(O)c1	inconclusive: 89.1 µM [inhibitor, single point] and inconclusive: 89.1 µM [inhibitor, partial curve]
O=C(Oc1ccccc1)N1CCC[C@@]2(CCN(Cc3cc(C(F)(F)F)cc(C(F)(F)F)c3)C2)C1	inconclusive: 56.2 µM [inhibitor, partial curve]
O=[N+]([O-])c1cc(O)c(O)c([N+](=O)[O-])c1	inconclusive: 100 µM [inhibitor, single point]
CC(C)=CCCC1(C)C=Cc2c(O)c3c(c(CC=C(C)C)c2O1)OC12C(CC4CC1C(C)(C)OC2(C/C=C(/C)C(=O)O)C4O)C3=O (stereo unspecified)	inconclusive: 100 µM [inhibitor, partial curve, poor fit]
CC=C(C)C(=O)O[C@H]1C(C)=C2[C@@H]3OC(=O)[C@@](C)(O)[C@@]3(O)[C@@H](OC(=O)CCC)C[C@](C)(OC(C)=O)[C@@H]2[C@@H]1OC(=O)CCCCCCC	inconclusive: 12.6 µM [inhibitor, full curve]
